# Experimental data: the supplement of paper PMC3334620
# The full ranking holds about 33,000 sequences; the median of “E-score (-0.5 to 0.5)” is about -0.041, and the highest 2% start at about 0.37. This is one part of the list.
# Molecular target: T1, Ecm22 (UniProt Q05958)
# T1 sequence: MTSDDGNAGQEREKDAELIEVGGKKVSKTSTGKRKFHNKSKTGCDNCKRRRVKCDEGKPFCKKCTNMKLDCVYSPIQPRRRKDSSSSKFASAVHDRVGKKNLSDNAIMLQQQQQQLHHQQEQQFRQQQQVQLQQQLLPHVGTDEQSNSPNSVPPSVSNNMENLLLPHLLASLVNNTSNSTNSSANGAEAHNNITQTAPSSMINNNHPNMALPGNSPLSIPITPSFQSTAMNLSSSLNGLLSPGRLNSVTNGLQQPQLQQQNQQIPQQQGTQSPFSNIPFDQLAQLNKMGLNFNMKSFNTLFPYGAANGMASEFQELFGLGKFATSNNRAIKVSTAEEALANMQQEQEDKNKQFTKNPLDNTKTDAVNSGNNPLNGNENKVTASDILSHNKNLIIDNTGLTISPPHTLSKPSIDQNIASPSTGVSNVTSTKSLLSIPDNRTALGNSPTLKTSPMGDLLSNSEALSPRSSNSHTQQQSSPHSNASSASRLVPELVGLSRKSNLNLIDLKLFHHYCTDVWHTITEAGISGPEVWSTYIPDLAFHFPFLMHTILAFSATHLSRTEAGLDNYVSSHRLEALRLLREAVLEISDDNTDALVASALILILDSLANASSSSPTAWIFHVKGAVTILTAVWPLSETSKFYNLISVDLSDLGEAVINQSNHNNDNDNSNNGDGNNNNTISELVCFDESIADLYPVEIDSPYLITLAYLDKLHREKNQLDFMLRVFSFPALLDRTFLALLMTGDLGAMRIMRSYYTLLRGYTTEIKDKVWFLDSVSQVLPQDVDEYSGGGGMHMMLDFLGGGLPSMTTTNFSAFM
# Test: PBM E-score (8-mer binding enrichment) (E-score (-0.5 to 0.5)); higher = stronger / more preferred TF binding; most listed sequences are background and not binding sites
# Settings: protein concentration: 200 nM; construct: GST-full length
# Procedure, shortened: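 Using PURExpress in vitro transcription/translation, GST-tagged yeast transcription factors were made in full-length or DNA-binding-domain form. These were applied at about 100-200 nM to double-stranded universal all-10-mer Agilent arrays, and bound protein was detected with fluorescent anti-GST. Scans were normalised with masliner before the Universal PBM Analysis Suite assigned E-scores to ungapped eight-base words pooled with their reverse complements.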
row,Sequence,PBM E-score
1,ACCAATCC,-0.249
2,GACACTGA,-0.0448
3,CCTTGAAC,0.0353
4,AAACTGGT,0.0364
5,GTAGCACA,-0.0815
6,GAGTGTAC,0.2
7,CACAAGCA,-0.151
8,GGGCAACA,-0.0629
9,ATTCAAGG,-0.157
10,AACTGAGA,-0.14
11,GATGATAA,0.023
12,CCCAATCG,-0.18
13,ACCAGCGT,-0.0626
14,ATCATGGG,-0.233
15,AGCGTACA,0.179
16,CCCCCGAG,-0.231
17,AGGCCCGG,-0.219
18,AGAAGTTA,-0.125
19,AAGGGCCC,-0.0372
20,ATCACGCG,0.248
21,ATACTAGG,-0.162
22,AAAAGGTG,-0.0672
23,ACAGAGTA,0.0174
24,GGGTACCA,-0.317
25,ATCGCCTA,-0.0443

row,Sequence,PBM E-score
1,ATCCAGAA,0.0321
2,GAGAAATA,0.0583
3,AATAAGGC,-0.225
4,ATTAAGAA,0.118
5,CGGTCGAA,0.109
6,GCATTAGC,-0.103
7,GGACCTCC,-0.152
8,ATTCTCCC,-0.287
9,CAGTCTGA,-0.00525
10,CCATTCCG,-0.135
11,ATGTTCTG,0.0525
12,TCAAACAA,-0.155
13,CTTTGAAC,0.0201
14,AAGTCAAG,-0.253
15,CGGATTGC,-0.0216
16,CACTTCAC,-0.307
17,AGCGCAAC,0.145
18,GTGTAAAA,-0.0587
19,ATTTTAAA,-0.0344
20,ATGCGGGA,0.0379
21,CTCCTATC,0.0551
22,AAGTAGGT,-0.0722
23,GGTATTGA,-0.0499
24,GCCTTTAC,0.0442
25,AATACACT,-0.0507

row,Sequence,PBM E-score
1,GGTCTATA,0.0785
2,AGTGGGCC,-0.116
3,GTTGGGCA,0.0114
4,CTTGCCAC,-0.175
5,AGTGCTTA,-0.0659
6,ACAAATAG,0.0509
7,CACCCCAA,0.0261
8,CCCGTTTA,0.433
9,CCAGGCAG,-0.159
10,CCCTGCCA,-0.124
11,AAATCGTT,0.319
12,CAGTCAGA,-0.25
13,ACAGAGCT,-0.297
14,CCGGGGGC,-0.189
15,CCGTATAA,0.473
16,ACGTTTTA,0.166
17,GACTATAC,0.283
18,TACCTTAA,0.247
19,GCCTCGCA,0.205
20,AATCCACT,-0.119
21,CTAAGGCC,-0.346
22,CATGTAAG,-0.058
23,CCGAGGAA,0.0818
24,ACGTGTCT,0.00104
25,AGGATTGG,-0.26

row,Sequence,PBM E-score
1,CCCAACCG,0.0194
2,CACAAGTA,-0.0291
3,AGAGATCG,0.00312
4,AACCGCTC,0.104
5,AGAAGCAA,-0.0442
6,ACCATCGC,0.0639
7,ACTTTTGA,-0.147
8,ACAATACG,0.335
9,CGACTTCA,0.142
10,ACACACTG,0.0804
11,ACTGCAAG,-0.116
12,CCAGAGTA,-0.15
13,CTGCCAGC,-0.24
14,GGAGAGTA,-0.176
15,TCTTAGAA,-0.126
16,CACTTATA,0.166
17,ACACATAT,-0.0183
18,CACTAAGG,-0.109
19,CTGAGGTA,-0.0705
20,GCGTGATA,0.127
21,CAATGACC,-0.054
22,CATTGTTC,-0.0668
23,GCTATTGA,-0.0201
24,AAAGTGCC,-0.251
25,AATAGCCG,-0.134

row,Sequence,PBM E-score
1,ACTTCATA,-0.101
2,CACGGATA,0.0566
3,ACAGTGCA,-0.0729
4,GTTGCTTA,0.0243
5,CGAGTTTA,0.159
6,AACTTTGC,-0.0161
7,AACATCCG,0.158
8,GCGTGTTA,0.0245
9,CCACTTTA,0.0441
10,CCCTAACG,0.0397
11,AAACCGAA,0.179
12,CCAAATTA,-0.0696
13,CCTACACA,-0.12
14,ACCCATCG,0.0454
15,TCAGCTGA,-0.0348
16,ACCATCCG,-0.0185
17,ACTTTGCG,0.071
18,ATGAGCAG,-0.189
19,ATGCCGGG,-0.159
20,ACGGTAGA,0.0495
21,CGGATGAG,-0.0455
22,AGACAACG,0.0578
23,AATTATAC,0.281
24,AAAAGAGA,0.00204
25,CACCGGTG,-0.131

row,Sequence,PBM E-score
1,ATTGATGG,-0.0207
2,CGACGGAG,0.16
3,CCTACGAA,0.192
4,CCGTTCAC,0.112
5,GAAGGTCA,-0.171
6,ACCTCCTC,-0.139
7,CCCTTCTC,-0.218
8,GAATCTCC,-0.00162
9,CGCATCGC,0.145
10,CCGAAAGA,0.0474
11,CTTGTGTA,0.0457
12,ATCCTCCG,0.0278
13,CGACACTC,0.206
14,GACAATAA,-0.0114
15,CTAGTAAC,-0.169
16,CAGCGCGG,-0.0854
17,ATCGTCGC,0.252
18,ACGTACTA,0.188
19,CGATTCTC,-0.0102
20,GAGGGGAA,0.00187
21,GACCCGCA,0.00101
22,CCTACTCC,-0.277
23,GCGCTCCA,-0.112
24,ACGGGCCC,0.0438
25,CGGACGAA,0.198

row,Sequence,PBM E-score
1,GGACTTGA,-0.2
2,ATTCTTGG,-0.0722
3,ATTAAACC,-0.0934
4,ATCAATGA,0.205
5,AGACCCCT,-0.299
6,GGCCCACC,-0.182
7,CATATTCG,0.106
8,GCGTATAA,0.394
9,GTAGACAA,0.0404
10,ACATCAAG,-0.119
11,CTGATCCA,-0.21
12,ATCTATAG,-0.164
13,GAGTGCTA,0.0828
14,AACTCCGG,0.0763
15,CGCGCTCC,0.117
16,AGTTTGTC,-0.103
17,ACGGTATG,0.133
18,AGTTACCG,0.0445
19,ATCGCTAC,0.148
20,AAATCAAA,-0.175
21,TGAACCAA,-0.0617
22,AACAAGCC,-0.0852
